Data from the supplement of paper PMC4166925.
± gives the standard deviation of the averaged measurements. The full ranking holds about 33,000 sequences; the median of “E-score (dimensionless, -0.5 to 0.5)” is about -0.049, and the highest 2% start at about 0.37. The list shows a part of the results.

Tested on: T1, PmTbr T-box DNA-binding domain (GST fusion)
T1 sequence: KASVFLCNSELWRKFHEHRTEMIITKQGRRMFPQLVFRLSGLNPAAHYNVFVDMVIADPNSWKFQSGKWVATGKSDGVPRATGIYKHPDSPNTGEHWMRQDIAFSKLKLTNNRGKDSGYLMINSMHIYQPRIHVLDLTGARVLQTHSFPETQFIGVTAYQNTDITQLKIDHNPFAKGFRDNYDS
Experiment: PBM E-score of 8-mer (E-score (dimensionless, -0.5 to 0.5)); Tbr is Tbrain of the sea star Patiria miniata (Pm) or the sea urchin Strongylocentrotus purpuratus (Sp); higher = stronger binding preference; most listed sequences are background and not binding sites
Settings: the construct has about 5 more residues each side
Method: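 Universal protein-binding microarray (Agilent AMADID 016060, 60-bp probes with a 35-bp variable region) incubated with 200 nM GST-fused Patiria miniata Tbr T-box DNA-binding domain (residues 272-466) in PBS pH 7.5. Scored for every ungapped 8-mer (given with its reverse complement) by the Universal PBM Analysis Suite as E-score (modified Wilcoxon-Mann-Whitney enrichment, range -0.5 to 0.5; >0.45 counts as bound) and Z-score of median probe intensity. Two replicate arrays (datasets 1 and 2).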
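Also: 200 nM protein in PBS on universal arrays averaged over duplicate arrays.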

Sequence | PBM E-score of 8-mer
TAGACAAA | -0.108 ± 0.12
CCAGGCCA | -0.268 ± 0.0065
AATGTTCG | -0.0504 ± 0.044
CCGTCCCC | -0.219 ± 0.076
ATCTCTAG | 0.046 ± 0.033
ATACTTTA | -0.124 ± 0.062
CTGCATAC | -0.134 ± 0.028
CCATAAGG | -0.138 ± 0.019
TAAGGTCA | -0.195 ± 0.021
AATCGGCG | 0.028 ± 0.075
ACGTCGCT | 0.0255 ± 0.013
CACTGCAA | 0.0729 ± 0.029
GGTTCCAC | 0.103 ± 0.021
CGCCCGGA | -0.127 ± 0.049
AGTTTCCG | -0.107 ± 0.02
CAGTCTAG | -0.133 ± 0.011
ATTGGGCA | -0.311 ± 0.014
ACGGCCCA | -0.197 ± 0.036
ATCGCTGG | -0.0392 ± 0.02
CTAGGTCA | 0.00648 ± 0.021
ACGTAGAA | -0.223 ± 0.063
TGAATCAA | -0.241 ± 0.0044
ATCATCTC | -0.104 ± 0.073
AAACACCA | 0.268 ± 0.0077
GTTCAACA | -0.048 ± 0.021

Sequence | PBM E-score of 8-mer
ATTCCACA | 0.11 ± 0.0066
AAAGTCTA | -0.194 ± 0.011
GAGAACAA | 0.0736 ± 0.061
ACTGACGC | 0.219 ± 0.029
CACCTTCC | 0.4461 ± 0.0012
CCCATCAA | -0.239 ± 0.024
TGCTGCCA | 0.0599 ± 0.065
GTATAGGA | -0.115 ± 0.049
AAGTTCCC | -0.242 ± 0.07
GCCCCAGC | -0.0938 ± 0.063
AGGACTTG | -0.152 ± 0.021
GCGAAGGA | 0.112 ± 0.0096
ACGAGCGT | 0.00364 ± 0.009
CGTCTGGA | -0.00957 ± 0.025
AGCCATGC | -0.221 ± 0.073
AACTTAGA | -0.157 ± 0.055
AGATGGGG | -0.0747 ± 0.079
GGATCCTA | -0.185 ± 0.057
AAATAGCA | 0.245 ± 0.039
GACATTGA | -0.0426 ± 0.12
CCATCCAG | -0.00603 ± 0.045
CTCGCGGA | 0.0973 ± 0.028
ATTTCCAA | -0.0463 ± 0.041
AGCTTTAT | -0.0227 ± 0.065
AGCTCACA | 0.243 ± 0.027

Sequence | PBM E-score of 8-mer
CACTAGAC | 0.128 ± 0.05
ACTGCTAA | 0.253 ± 0.03
ATAGTGCA | 0.037 ± 0.00069
CCAACCGA | 0.0297 ± 0.03
AGGCCCCA | -0.00282 ± 0.088
GATGCAGA | -0.142 ± 0.0028
CCTGAACG | -0.00789 ± 0.012
CTAACGAG | 0.152 ± 0.013
ACACACAA | 0.0649 ± 0.066
CGAGGACC | -0.0961 ± 0.05
AGCTGAGG | 0.0719 ± 0.034
CCGGTTCG | -0.102 ± 0.022
CGAGCGCC | -0.04 ± 0.053
ACCCCTAA | -0.0107 ± 0.012
ACAAACGT | 0.00304 ± 0.087
ACAAAGGT | 0.185 ± 0.029
GTTAAAAC | 0.242 ± 0.032
TTCTAAAA | -0.224 ± 0.06
CGCGTTAC | 0.182 ± 0.047
GACCTAGA | -0.233 ± 0.0031
CATAACGG | -0.0545 ± 0.0046
CGTCCTAA | -0.161 ± 0.043
ATAATGCC | -0.174 ± 0.081
TACTCTGA | -0.296 ± 0.047
CATTTCCC | -0.12 ± 0.03

Sequence | PBM E-score of 8-mer
GCGTGCAC | -0.11 ± 0.0083
ATGTTGGA | -0.0683 ± 0.0083
ATGTCTAC | -0.197 ± 0.004
AAAAAACT | -0.0997 ± 0.07
GATACATC | 0.109 ± 0.043
GGTTTTCA | -0.0123 ± 0.066
GCTTTCCA | -0.136 ± 0.0065
AGGGGAAC | -0.164 ± 0.058
ACTTTAGC | 0.18 ± 0.053
AAGATGCC | -0.11 ± 0.016
CTCCAAAG | 0.00306 ± 0.0076
AGGTATGG | -0.156 ± 0.004
CCTACTCG | -0.0832 ± 0.058
CATAAACC | -0.0906 ± 0.092
AGGCCGAG | 0.0138 ± 0.058
TGGCTGAA | -0.23 ± 0.083
ATGTCGGG | -0.0272 ± 0.082
CAGATCGA | -0.0946 ± 0.032
AACAACTG | 0.236 ± 0.0091
GGAAATGA | -0.0842 ± 0.13
GATAAGGA | -0.0732 ± 0.091
AACACTAA | 0.22 ± 0.049
CGCTAGCA | 0.213 ± 0.054
AATCACGT | 0.132 ± 0.026
GCACGAAC | 0.0634 ± 0.087

Sequence | PBM E-score of 8-mer
AGAGCACG | -0.122 ± 0.054
CCATCTAA | -0.101 ± 0.031
GGAATCAC | 0.0477 ± 0.0062
AAATTAAG | -0.352 ± 0.028
AGTTATTA | 0.21 ± 0.036
CTATAACC | 0.0577 ± 0.023
CCATGCGG | -0.187 ± 0.044
CTTCCTGC | -0.137 ± 0.02
CAGTGCTA | 0.2111 ± 0.00047
GTCATGCA | -0.133 ± 0.0069
CCCCCACG | -0.094 ± 0.0037
ACATCGGA | 0.0509 ± 0.11
AGCCTGTG | 0.00387 ± 0.024
CACTGCCG | -0.0289 ± 0.081
GACTTTAA | -0.305 ± 0.055
ATCTCTAC | -0.199 ± 0.035
AGACAGGG | -0.0618 ± 0.038
ACAACTTA | 0.217 ± 0.074
ACCTTGTG | 0.221 ± 0.031
ATAACAAA | -0.00818 ± 0.13
GTCCGTTA | -0.12 ± 0.098
CGAATAGC | 0.0684 ± 0.011
AAAATACA | -0.0985 ± 0.1
GAAGGGCA | -0.06 ± 0.0073
CAGTCACC | 0.1704 ± 0.0011

Sequence | PBM E-score of 8-mer
ACGGGTCT | 0.145 ± 0.0046
AGGATTTC | -0.105 ± 0.029
AAGTAGCA | 0.283 ± 0.015
CCTGTCAG | 0.224 ± 0.013
ACTGCGCC | 0.0401 ± 0.084
ATGGAACC | -0.241 ± 0.0026
GGCGGACA | -0.0729 ± 0.086
ACTCCCCG | -0.0322 ± 0.051
AATTGCCG | 0.131 ± 0.0045
GCCAGTTA | 0.0465 ± 0.035
CGACCCTA | -0.0857 ± 0.014
CTTAAATA | -0.12 ± 0.12
AGTCGTAT | -0.144 ± 0.032
GGTGACCA | 0.0575 ± 0.069
GGCTTGGA | -0.269 ± 0.017
CCGATGCG | -0.137 ± 0.032
CGGTACGA | -0.129 ± 0.083
ACCCATTA | 0.0586 ± 0.03
CAAGTGTG | 0.433 ± 0.0066
AAGGGGCT | -0.298 ± 0.033
GTGCTTGA | 0.00432 ± 0.026
CGAACACG | 0.213 ± 0.039
CCCACGCG | 0.118 ± 0.043
GCGTATCC | -0.0938 ± 0.033
CGAAGTCG | 0.138 ± 0.0022

Sequence | PBM E-score of 8-mer
ACCATAGG | 0.16 ± 0.012
AATAAAAA | -0.187 ± 0.012
GAGTTAGA | -0.215 ± 0.018
GATGGTAA | -0.154 ± 0.025
GATTATCA | 0.106 ± 0.005
AGTTGGCG | 0.229 ± 0.039
GACAGAGA | -0.0089 ± 0.054
CGACGTCG | 0.0448 ± 0.045
GGTAATAA | -0.204 ± 0.056
AGAGTCAA | -0.178 ± 0.012
AGCAATAT | 0.0515 ± 0.092
CTAATTAC | -0.117 ± 0.033
CGAAGCCG | 0.155 ± 0.06
ACATGCTA | 0.196 ± 0.0051
AGGTAGCA | 0.127 ± 0.033
CATGGGAA | -0.0941 ± 0.0043
ATGTACGG | -0.151 ± 0.073
CTTGTGGA | 0.139 ± 0.026
CGCGTTTA | 0.0976 ± 0.027
AAGGAGAC | -0.107 ± 0.022
ACGGCCGC | 0.0697 ± 0.036
GGAAGGGA | -0.272 ± 0.032
